Data from the supplement of paper PMC10338343.
± gives the standard deviation. The full ranking holds about 3,000 sequences; the median of “pre-steady-state target cleavage rate” is about 0.0079, and the highest 2% start at about 0.2. The entries are a selection whose mix differs from that of the whole data set.

Test system: MILI (PIWIL2) piRISC loaded with piRNA #2 (26 nt)
Assay: pre-steady-state target cleavage rate (min^-1); MIWI and MILI are mouse PIWI proteins and EfPiwi is from a freshwater sponge; tags in brackets are library labels; higher = faster piRNA-guided slicing of the target
Conditions: guide: piRNA #2 5'p-UUAGGUAACCCAGUAGAUCCAGAGGA; auxiliary factor: 500 nM mouse GTSF1
Procedure, shortened: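 The pre-steady-state cleavage rate came from a burst-and-steady-state fit to pooled data from three Cleave-'n-Seq trials, in which uncleaved targets were sequenced and normalised to depth and to weakly complementary targets. Each reaction held 0.1 nM transcribed, DNA-blocked target RNA library and 1 nM active affinity-purified piRISC carrying one synthetic guide, with or without 500 nM GTSF1 partner protein, in HEPES–potassium acetate buffer at 33 °C for 0–8 or 0–960 min. k3 was capped at 0.0001 min^-1.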

| Sequence | pre-steady-state target cleavage rate |
| --- | --- |
| CUUAAGGACUGGAUCUACUGGGUUACCUCA | 0.0211 ± 0.012 |
| CUUAUCCUCUGGAUCUACUGGGUUAGCAAA | 0.0899 ± 0.026 |
| CUUAAGCUCUGGAUCUACUUGGUUACCUAA | < 0.0001 |
| CUUAUCGUCUGGAUCUUCUGGGUUACCUAA | 0.0438 ± 0.011 |
| CUUAAGGUCUGGAUCUACUGGGGUACCUAA | 0.0151 ± 0.0067 |
| CUUAUCCUUUGGAUCUACUGGGUUACCUAA | 0.112 ± 0.021 |
| CUUAUCCUCUGGAUCUACUCGGUUAGCUAA | < 0.0001 |
| CUUAAGCACUGGAUCUACUGGGUUACGUAA | 0.028 ± 0.0099 |
| CUUAUCCACUGGAUCUACUGGGUUUCCUAA | 0.123 ± 0.034 |
| CUUAAGCUCUGGAUCUACUGGGUUAACUAA | 0.095 ± 0.017 |
| CUUAACCUCUGGAUCUACUGGGUUACCUAC [g2:g25:cont:t1C] | 0.0951 ± 0.016 |
| CUUAUCCUCUGGAUCUACUGGGUUACCUAA [g2:g26:cont:t1A] | 0.125 ± 0.023 |
| CUUAAGCUCUGGAUCUACGGGGUUACCUAA | 0.0564 ± 0.0096 |
| CUUAACCUCACGAUCUACUGGGUUACCUAA | 0.0838 ± 0.019 |
| CUUAUCCUCUGGAUCUACUGGGUUACGAUA | 0.0863 ± 0.018 |
| CUUAAGGAGAUGAUCUACUGGGUUACCUAA | 0.00468 ± 0.0027 |
| CUUAAGGUCUGGAUCUAGUGGGUUACCUAA | 0.0754 ± 0.011 |
| CUUAUCCUCUGGAUCUACAGGGUAACCUAA | 0.0485 ± 0.0099 |
| CUUAAGGUCUGGAACUACUGGGUUACCUUA | 0.0302 ± 0.012 |
| CUUAAGGUCUGUGAUCUACUGGGUUACCUAA | 0.0319 ± 0.012 |
| CUUAACCUUGGAUCUACUGGGUUACCUAA | 0.134 ± 0.041 |
| CUUAAGGUCUGGAUCUACUCGGUUUCCUAA | < 0.0001 |
| CUUAUCCUCUGGAUCUACUCCCUUACCUAA | < 0.0001 |
| CUUAAGGAGUGGAUCUACCGGGUUACCUAA | 0.0106 ± 0.0044 |

| Sequence | pre-steady-state target cleavage rate |
| --- | --- |
| CUUAUCCUCUGGAUCUACUGGGUCACCUAA | 0.0729 ± 0.02 |
| CUUAACCUCUGGAUCAACUGGGUUAGCUAA | 0.0452 ± 0.015 |
| CUUAUCCUCUGGAUCUUCUGGGUUUCCUAA | 0.258 ± 0.088 |
| CUUAAGGUCUGGAUCUACUGGGUAUCCUAA | 0.00775 ± 0.0042 |
| CUUAUCGUCUGGAUCUACUGGGAUACCUAA | 0.0257 ± 0.01 |
| CUUAUCCUGCUGGAUCUACUGGGUUACCUAA | 0.0776 ± 0.018 |
| CUUAAGCUCUGGAUCUACUGGGAUUACCUAA | 0.0255 ± 0.0088 |
| CUUAACCUCUGGAUCAACUGGGUUACCUAA | 0.0725 ± 0.016 |
| CUUAAGGAGUGGAUCUACUGGGUUACCAUAA | 0.0164 ± 0.0065 |
| CUUAAGGUCUGGUUCUACUGGGUUACGUAA | 0.0238 ± 0.011 |
| CUUAAGGACUGGAUCUACUGGGUUACACUAA | 0.00728 ± 0.0071 |
| CUUAUCCUCUGGAUCUUGUGGGUUACCUAA | 0.0259 ± 0.0071 |
| CUUAAGGUUCUGGAUCUACUGGGUUACCUAA | 0.0561 ± 0.014 |
| CUUAUCCUCUGGAUCUACGGGUUACCUAA | 0.0179 ± 0.006 |
| CUUAAGGUCUGGAUCUACUGUGUUACCUAA | 0.0217 ± 0.0075 |
| CUUAUCCUCUGGAUUACUGGGUUACCUAA | 0.0465 ± 0.012 |
| CUUAAGGAGUGGAUCUCCUGGGUUACCUAA | 0.0167 ± 0.0078 |
| CUUAACCUCUAGAUCUACUGGGUUACCUAA | 0.164 ± 0.024 |
| CUUAACCUCUGGAUCUACUGGUUUACCUAA | 0.0131 ± 0.0052 |
| CUUAUCCUCUGCAUCUACUGGGUAACCUAA | 0.0553 ± 0.017 |
| CUUAAGCUCUGGAUGUACUGGGUUACCAAA | 0.0554 ± 0.014 |
| CUUAUCCUCUGGAUGUACUGGGUUAGCUAA | 0.0428 ± 0.011 |
| CUUAAGGAGAGGAUCUACUGGGUUAGCCUAA | 0.00695 ± 0.0046 |
| CUUAUCCUCUGGAACUACUGGGUUACCUUA | 0.266 ± 0.073 |

| Sequence | pre-steady-state target cleavage rate |
| --- | --- |
| CUUAACCUCUCGAUCUACUGCGUUACCUAA | 0.0274 ± 0.0066 |
| CUUAUCCUCUGGAUCUACUGGGUAUGCUAA | 0.092 ± 0.023 |
| CUUAAGGAGUGGUAUCUACUGGGUUACCUAA | 0.0475 ± 0.021 |
| CUUAAGCUCUGGUUCUACUGCGUUACCUAA | 0.0161 ± 0.0062 |
| CUUAAGGUCUGGAUCUACUGGGUUAGCUUA | 0.00941 ± 0.0047 |
| CUUAAGGACAGGAUCUACAGGGUUACCUAA | 0.0375 ± 0.014 |
| CUUAAGGAGUGGAUUCUACUGGGUUACCUAA | 0.0144 ± 0.0062 |
| CUUAAGGUCUCGAUCUACUGGGUUUCCUAA | 0.0375 ± 0.013 |
| CUUAAGCUCUGGUUCUACUGGGUUACCUAA | 0.131 ± 0.027 |
| CUUAAGCUCUGGAUGAACUGGGUUACCUAA | 0.0213 ± 0.0083 |
| CUUAACCUCAGGAUCAACUGGGUUACCUAA | 0.0494 ± 0.012 |
| CUUAAGGACUGGAUCUACUGGGUUACCUUA | 0.024 ± 0.013 |
| CUUAAGCACUGGAUCAACUGGGUUACCUAA | 0.053 ± 0.011 |
| CUUAAGCUCUGGAUCAACUGGGUAACCUAA | 0.0152 ± 0.0052 |
| CUUAACCUCUGGAACUACUGGGUUAGCUAA | 0.105 ± 0.044 |
| CUUAAGGUCUCGAUCUACUGGGUAACCUAA | 0.0272 ± 0.011 |
| CUUAUCCUCUGGAUCUACUGGGUGUACCUAA | 0.0546 ± 0.011 |
| CUUAAGGACUCGAUCUAGUGGGUUACCUAA | 0.00593 ± 0.003 |
| CUUAUCCUCUGGAUCUACUGGGUUACGUUA | 0.103 ± 0.02 |
| CUUAUCCUCAGGAUGUACUGGGUUACCUAA | 0.0858 ± 0.016 |
| CUUAAGCUCUGGGAUCUACUGGGUUACCUAA | 0.12 ± 0.024 |
| CUUAACCUCUGCAUGUACUGGGUUACCUAA | 0.117 ± 0.016 |
| CUUAAGGUCUGGAACUAGUGGGUUACCUAA | 0.0373 ± 0.011 |
